# Laboratory results as given in patent publication US7531669B2, “Methods for treating neural disorders and conditions, and compounds useful therefor” (The Salk Institute for Biological Studies, priority 2003, dated 2009).
# At least one structure is not confirmed: it was looked up by name or label, or the drawing left a doubt.
# Experiments:
# [1] = system: mouse primary cortical neurons; experiment: Excitotoxicity assay in mouse primary cortical neurons (glutamate, MTT); type: cell-based; settings: 10 μM compound; 10 μM glutamate for 10 min; MTT 24 hr later
# [2] = system: rat primary cortical neurons; experiment: Neuroprotective activity, rat primary cortical neurons cultured in serum-containing or serum-free medium; type: cell-based
# Method: Primary cortical neurons are prepared from 18-day-old embryos of Sprague-Dawley rats as described (Liu and Schubert J. Neurochem. 69, 2285-2293 (1997) and J. Neurochem. 71, 2322-2329 (1998)). Briefly, the cerebral cortex is dissected out under an anatomical microscope and is freed of meninges and blood vessels. The cortex is cut into small pieces and is then dissociated by trypsin digestion and passed through a pipette tip. Dissociated neurons are suspended in various media and plated on polylysine-coated 35 mm tissue culture dishes (1×10^6 cells/dish). Several different culture conditions were used. Invention compounds were added to cell culture dishes. Cell survival was measure 2-7 days after compound administration.
# The following serum-containing medium was used: minimal essential medium (Sigma) containing 30 mM glucose, 2 mM glutamine, 1 mM pyruvate, penicillin (100 U/ml), streptomycin (100 μg/ml), and 10% fetal calf serum. At a plating density of 1×10^6 cells/dish, most neurons die after one week of culture in this medium. If plated at a density of 2×10^6 cells/dish, then most neurons survive. Glia proliferate in this medium regardless of the initial cell density. Therefore the cell density-dependent neuronal survival in this system is most likely dependent on the neurotrophic factors secreted by the neurons, not by the glia. The results are the same when glial proliferation is inhibited by cytosine arabinoside.
# A serum-free medium containing DMEM/F-12 plus N2 supplements (Invitrogen). When plated at a density of 1×10^6 cells/dish, almost all neurons die within three days. The cell death mechanisms in this culture medium are most likely to be oxidative stress and trophic factor deficiency.
# A number of compounds according to the present invention were synthesized (using standard synthetic techniques) to explore the structure-activity relationships. The structures of exemplary invention compounds tested are provided herein. The structure-activity relationships of various compounds according to the present invention with rat primary cortical neurons cultured in serum-containing or serum-free medium are set forth in Table 1.
Structure (SMILES),Neuroprotective activity at 10 μM [1],Neuroprotective activity at 1 μM [2]
COc1ccc(/C=C/c2cc(/C=C/c3ccc(OC)cc3)n(-c3ccccc3)n2)cc1 [Compound 22-022],++,–
Oc1ccc(/C=C/c2cc(/C=C/c3ccc(O)c(O)c3)n(-c3ccccc3)n2)cc1O [Compound 22-025],+,++
Oc1ccc(/C=C/c2cc(/C=C/c3ccc(O)cc3)n(-c3ccccc3)n2)cc1 [Compound 22-021],+++,++++
COc1ccc(/C=C/c2cc(/C=C/c3ccc(OC)c(OC)c3)n(-c3ccccc3)n2)cc1OC [Compound 22-026],+,–
Oc1cccc(/C=C/c2cc(/C=C/c3cccc(O)c3)n(-c3ccccc3)n2)c1 [Compound 22-023],++++,++++
COc1cc(/C=C/c2cc(/C=C/c3ccc(O)c(OC)c3)n(-c3ccccc3)n2)ccc1O [Compound 11-001],++,+++
COc1cc(/C=C/c2cc(/C=C/c3ccc(O)c(OC)c3)n(C(C)(C)C)n2)ccc1O [Compound 22-031],–,+++
COc1ccc(-n2nc(/C=C/c3ccc(O)c(OC)c3)cc2/C=C/c2ccc(O)c(OC)c2)cc1 [Compound 22-036],–,++
COc1cc(/C=C/c2cc(/C=C/c3ccc(O)c(OC)c3)n(-c3cccc(F)c3)n2)ccc1O [Compound 22-033],–,+
COc1cc(/C=C/c2cc(/C=C/c3ccc(O)c(OC)c3)n(-c3ccccc3F)n2)ccc1O [Compound 22-032],–,++
COc1cccc(/C=C/c2cc(/C=C/c3cccc(OC)c3)n(-c3ccccc3)n2)c1 [Compound 22-024],++,–
COc1cc(/C=C/c2cc(/C=C/c3ccc(O)c(OC)c3)n(C)n2)ccc1O [Compound 22-018],–,+
COc1cc(/C=C/c2cc(/C=C/c3ccc(O)c(OC)c3)n(-c3ccc(F)cc3)n2)ccc1O [Compound 22-034],–,+
COc1cc(/C=C/c2cc(/C=C/c3ccc(O)c(OC)c3)n(-c3cccc([N+](=O)[O-])c3)n2)ccc1O [Compound 22-035],–,++
C(=C\c1cc(/C=C/c2ccccc2)n(-c2ccccc2)n1)/c1ccccc1 [Compound 22-020],+,–
COc1cc(/C=C/c2cc(/C=C/c3ccc(O)c(OC)c3)n(-c3ccc(C(F)(F)F)cc3)n2)ccc1O [Compound 22-037],–,+++
